The whole screen tested about 150,000 compounds, of which about 540 (0.36%) showed an effect of 50% or more. This is one part of the list.

For the assay, the system named is Plasmodium falciparum. Kind of assay: Primary screen in NF54 nanoGlo assay, in single point, at 2uM, 72h; a lower Z score goes with more inhibition. To be noted: timepoint 72 hour. In kind it is functional, Erythrocyte.
As usually defined, the % Inhibition is the change of the read-out against control, counted positive when it falls. Turning to `C=CCN1CC[C@H](N(C)C(=O)Nc2ccncc2C)C1=O`, the “% Inhibition” value came to 3% and the Z score is given as -0.4.

For `CCc1cc(Oc2cncc(Br)c2)n2ncnc2n1`, the “% Inhibition” value is -11% and the Z score is listed as 2.16.

Regarding `COc1nccc(N2CCn3nc(CN4CCC[C@H](O)C4)cc3C2)c1C#N`, the “% Inhibition” value was -8% and the Z score was 1.05.

For `CCOC(=O)c1cc(C2CC2)nc2c1c(=O)n(CC(=O)N1CCc3ccccc31)c(=O)n2C`, the “% Inhibition” value is given as -8% and the Z score worked out at 1.12.

Turning to `Cc1ccc(CN(C)C(=O)C2(Nc3ccccc3)CCCC2)o1`, the “% Inhibition” value is -7% and the Z score is 1.37.

For the molecule `O=C(NC[C@H]1CCN(Cc2ccc3nonc3c2)C1)c1ccccn1`, the “% Inhibition” value is reported as -10% and the Z score was determined as 1.4.

On to `Cc1cnc(C(=O)N2CCC[C@H]2c2ccc3c(c2)OCCCO3)cn1`, for which the “% Inhibition” value was found to be 0% and the Z score was 0.05.

Take `Cc1cccc(N2CCN(C(=O)CCS(=O)(=O)c3ccc4c(c3)CC(=O)N4C)C[C@@H]2C)c1`: the “% Inhibition” value is reported as -14% and the Z score is 1.83.

With `C[C@@H]1CN(C(=O)c2cccc(-c3cnc(=O)[nH]c3)c2)C[C@H](C)O1`, the “% Inhibition” value is listed as 2% and the Z score was -0.37.

For the molecule `COCCCN(Cc1ccc(OC)c(OC)c1)C[C@H](O)C(C)C`, the “% Inhibition” value worked out at 5% and the Z score was -0.77.

Consider `CCNC(=O)N(Cc1cccc(OS(=O)(=O)C(C)C)c1)CC(C)C`, for which the “% Inhibition” value is on record as 5% and the Z score is -0.53.

On to `COc1c(F)cc(CN2CCC3(CC2)c2ccccc2C[C@@H]3O)cc1Cl`, for which the “% Inhibition” value is reported as -3% and the Z score turned out to be 0.43.

Take `COc1ccc(-c2nnc([C@H]3CCN(Cc4ccc5c(c4)OCO5)C3)o2)cc1`: the “% Inhibition” value is -12% and the Z score worked out at 1.98.

Regarding `C/C(=C\c1ccco1)CN1CC[C@H](CNC(=O)C(C)(C)C)[C@@H](O)C1`, the “% Inhibition” value is on record as -15% and the Z score amounted to 1.59.

For the molecule `CC(C)c1ccc(NCC2(CO)CCC2)nn1`, the “% Inhibition” value is reported as -7% and the Z score worked out at 0.9.

Take `OC(CN(CC1CCOC1)C1CC1)c1ccc(Br)cc1` (centres undefined): the “% Inhibition” value was -2% and the Z score turned out to be 0.32.

On to `Cc1noc(C)c1S(=O)(=O)N1CCC(c2nnc(C(=O)Nc3ccc(F)cc3F)s2)CC1`, for which the “% Inhibition” value is -22% and the Z score stood at 2.

As to `COc1ccc(-c2nc(-c3ccc(OC)c4c3OCC4=O)cs2)cc1`, the “% Inhibition” value is 1% and the Z score is -0.24.

As to `Cc1cc(C(=O)N2CCC(O)(Cc3ccccn3)CC2)cc(C)c1F`, the “% Inhibition” value is recorded as -11% and the Z score is 1.51.

Take `Clc1ccccc1C1(c2nnc(C3CC3)o2)CCOCC1`: the “% Inhibition” value came out at 13% and the Z score was -1.65.

Turning to `Cc1cc(NC(=O)N2CCCN3c4ccccc4C[C@H]3C2)cn2ccnc12`, the “% Inhibition” value is recorded as -8% and the Z score stood at 0.66.

For the molecule `Cc1ccncc1C(=O)N1CCC[C@H](Cn2cc(C(C)(C)N)nn2)C1`, the “% Inhibition” value is -13% and the Z score is given as 1.83.

With `CCCc1nc(Cn2nc(C)nc2C(F)F)no1`, the “% Inhibition” value is -7% and the Z score is reported as 0.72.

For `COc1ccc2[nH]c(CN3C[C@H](N(C)C)C[C@H]3C(=O)O)c(C)c2c1`, the “% Inhibition” value amounted to 5% and the Z score is -0.7.

Regarding `CCC1C(c2ccc(C)cc2)CCN1Cc1nc(CC(=O)NC)no1` (centres undefined), the “% Inhibition” value came to 6% and the Z score is reported as -0.78.

With `C[C@H]1c2nncn2CCN1C(=O)C1CC(O)(C2CCCCC2)C1` (some centres undefined), the “% Inhibition” value was 0% and the Z score was found to be 0.06.

`CC1Oc2ccc(NC(=O)NCC3Cc4ccccc4O3)cc2NC1=O` (centres undefined): the “% Inhibition” value is given as 3% and the Z score is given as -0.42.

For `COc1ccc(S(=O)(=O)N2CCC(c3nc4ccccc4o3)CC2)cc1`, the “% Inhibition” value was -6% and the Z score turned out to be 0.66.

Consider `CCNc1ccnc(N(C)Cc2nc(CC)no2)n1`, for which the “% Inhibition” value was -11% and the Z score was determined as 2.14.

With `CCCS(=O)(=O)N(C)Cc1ccc(OC)cc1Cl`, the “% Inhibition” value is -4% and the Z score was found to be 0.45.

`C[C@H]1CN(C(=O)COc2ccc(F)cc2)C[C@]1(O)C1CCC1`: the “% Inhibition” value was -4% and the Z score amounted to 0.56.

`CCc1ccc([C@@H]2CC(=O)NC(NC(=O)c3ccccc3C)=N2)cc1`: the “% Inhibition” value is on record as -8% and the Z score came out at 0.94.

As for `CCn1cc(C)c(C(=O)O)c1CC(=O)NCc1ccccc1F`, the “% Inhibition” value is given as 0% and the Z score turned out to be 0.

Regarding `Cc1nn(C)c(C)c1-c1cc(C(=O)NC[C@@H]2COc3ccccc3C2)n(C)n1`, the “% Inhibition” value is on record as -4% and the Z score came out at 0.41.

In the case of `CC1CN(C(C)c2nc(-c3ccco3)no2)CC(C)O1` (centres undefined), the “% Inhibition” value is recorded as 7% and the Z score is -1.43.

Consider `CC1(C)C(=O)NC(=O)N1CC(=O)N1CCC(Cc2ccccc2)CC1`, for which the “% Inhibition” value is -4% and the Z score amounted to 0.76.

On to `Cc1ccn2cc(C(=O)N3CCC(Cc4ccccc4)CC3)nc2c1`, for which the “% Inhibition” value was -11% and the Z score turned out to be 1.6.

Take `CCC1(CC)NC(=O)N(C[C@H](O)c2ccc(F)cc2F)C1=O`: the “% Inhibition” value came out at 4% and the Z score was -0.67.

For the molecule `Cc1c(C(=O)Nc2cccc(S(=O)(=O)NC3CC3)c2)cnn1C`, the “% Inhibition” value is 34% and the Z score was -1.16.

With `CN(CC(C)(CO)CO)c1ccnc(C(C)(C)C)n1`, the “% Inhibition” value is on record as -13% and the Z score was found to be 1.57.

`CC[C@H](NC(=O)c1csc(C(C)C)n1)c1ncnn1C`: the “% Inhibition” value is given as -13% and the Z score is reported as 2.41.

Consider `Cc1cccc(-c2ncc(C(=O)NCc3ccc(F)cc3)c(N3CCN(c4ccccc4F)CC3)n2)c1`, for which the “% Inhibition” value is listed as -12% and the Z score was found to be 1.26.

(Values after ChEMBL document CHEMBL4888484, “Replenishing the malaria drug discovery pipeline: Screening and hit evaluation of the MMV Hit Generation Library 1 (HGL1) against asexual blood stage Plasmodium falciparum ,using a nano luciferase reporter read-out” (2022).)
